What is called IC50 is the concentration needed to halve the response being measured.

From patent publication EP0992240A1, “THERAPEUTIC AGENT FOR ERECTION FAILURE” (MOCHIDA PHARMACEUTICAL CO., LTD., priority 1997, dated 1998) come the findings set out here.

Read-outs that look alike come from different tables or passages of the source.

The target in experiment [1] is T1, PDE type V (Canis lupus familiaris, UniProt O77746).
T1 construct: By elution with a sodium chloride gradient (0 - 0.4 M), PDE types V and III were separated from the other isozymes; from tissue; host or cells: canine aorta
Briefly: PDE inhibiting activity, type V. Type of experiment: biochemical, dog. Particulars: PDE purified from canine aorta, 1 µM substrate cGMP or cAMP.

Experiment [2] relates to PDE type I. Briefly: PDE inhibiting activity, type I. The format is biochemical, dog. Particulars: PDE purified from canine aorta; 1 µM substrate cGMP or cAMP; read-out: Inhibition Activity IC50 (µM) Type I. The procedure: On the basis of the method of Lugnier et al. (Biochem. Pharmacol., 35, 1743-1751, 1986), PDE was purified from the aorta in a dog. The canine aorta was minced and homogenized with a Waring Blender and a glass homogenizer in six volumes of a Tris-HCl buffer solution (pH 7.5, 20 mM) containing 2 mM magnesium acetate, 5 mM ethylenediaminetetraacetic acid (EDTA), 100 µg/mL of phenylmethylsulforyl fluoride and 15 mM 2-mercaptoethanol (2-ME), and centrifuged at 1200 x g for 30 min. The supernatant was separated and salted out with ammonium sulfate which was added to 45% saturation. The resulting precipitated fraction was resuspended in a Tris-HCl buffer solution (pH 7.5, 20 mM) containing 2 mM magnesium acetate and 1 mM 2-ME, dialyzed overnight and applied to a DEAE-trisacryl column (DEAE […] M:IBF). By elution with a sodium chloride gradient (0 - 0.4 M), PDE types V and III were separated from the other isozymes. The supernatant fraction of 45% saturated ammonium sulfate was further mixed with ammonium sulfate to 65% saturation and salted out. The resulting precipitated fraction was similarly applied to the DEAE-trisacryl column and eluted by a sodium chloride gradient (0 - 0.4 M) so as to separate PDE type I.
The thus obtained PDE types V, III and I were measured for their activity in accordance with the method of Thompson et al. (Adv. Cyclic Nucleotide Res., 10, 69-72, 1979) and the method of Wells et al. (Biochim. Biophys. Acta, 384, 430-443, 1975). Specifically, a purified PDE sample was added to 50 mM Tris-HCl buffer solution (pH 7.5) containing 1 µM of substrate cGMP or cAMP (containing tritium-labelled cGMP or cAMP), 1 mM EGTA and 2 mM magnesium acetate. For PDE activity measurement, enzymatically produced 5' GMP or 5' AMP was further hydrolyzed into guanosine or adenosine with snake venom and separated from the substrate by means of an ion-exchange resin (Dowex 1-X2), followed by measuring with a scintillation counter. The activity of each test compound was determined as a percentage of the PDE activity measured when it was added as a dimethyl sulfoxide solution (DMSO) and its IC50 (50% inhibition concentration) was calculated by the probit method. The final concentration of DMSO was adjusted to be no more than 2% in consideration of the effect on PDE activity.

The mark [3] stands for this setting: read-out: Inhibition Activity IC50 (µM) Type V.

Take `O=c1c(Cc2cccnc2)cn2c3cc(Br)ccc3c3cc(O)cc1c32` [Example 31, 9-bromo-2-hydroxy-5-(3-pyridylmethyl)-4H-pyrido[3,2,1-jk]carbazol-4-one]: the IC50 was 0.0073 µM in experiment [1] (setting [3]) and more than 30 µM in experiment [2].
As for `O=c1c(Cc2cccnc2)cn2c3cc(Br)ccc3c3cc(OCc4cccnc4)cc1c32` [Example 34, 9-bromo-5-(3-pyridylmethyl)-2-(3-pyridylmethyloxy)-4H-pyrido[3,2,1-jk]carbazol-4-one], the IC50 in experiment [2] is more than 30 µM.
With `CCNC(=O)COc1cc2c(=O)c(Cc3cccnc3)cn3c4cc(Br)ccc4c(c1)c23` [Example 37, 9-bromo-2-(N-ethylcarbamoylmethyloxy)-5-(3-pyridylmethyl)-4H-pyrido[3,2,1-jk]carbazol-4-one], the results for the IC50 in experiment [1] (Inhibition Activity IC50 (µM) Type V) and in experiment [2] were 0.067 µM and more than 30 µM, respectively.
In the case of `O=c1c(Cc2cccnc2)cn2c3cc(Br)ccc3c3cc(OCCCO)cc1c32` [Example 38, 9-bromo-2-(3-hydroxypropyloxy)-5-(3-pyridylmethyl)-4H-pyrido[3,2,1-jk]carbazol-4-one], the IC50 in experiment [1] (setting [3]) is 0.0079 µM; in experiment [2], more than 30 µM.
Taken in the same sequence, the figures for `O=c1ccn2c3ccc(Cl)cc3c3cccc1c32` [Example 44, 10-chloro-4H-pyrido[3,2,1-jk]carbazol-4-one] were 0.43 µM and more than 100 µM.
On the same counts, the results for `CCOC(=O)COc1cc2c(=O)c(Cc3cccnc3)cn3c4ccc(Cl)cc4c(c1)c23` [Example 47, 10-chloro-2-ethoxycarbonylmethyloxy-5-(3-pyridylmethyl)-4H-pyrido[3,2,1-jk]carbazol-4-one] are 0.042 µM and more than 30 µM.
Turning to `Cc1cc2c(=O)ccn3c4ccc(Br)cc4c(c1)c23` [Example 50, 10-bromo-2-methyl-4H-pyrido[3,2,1-jk]carbazol-4-one], the IC50 in experiment [1] (setting [3]) is 0.04 µM; in experiment [2], more than 30 µM.
As for `O=c1c(Cc2cccnc2)cn2c3cc(Cl)ccc3c3cc(OCCCO)cc1c32` [Example 53, 9-chloro-2-(3-hydroxypropyloxy)-5-(3-pyridylmethyl)-4H-pyrido[3,2,1-jk]carbazol-4-one], the IC50 was 0.014 µM in experiment [1] (setting [3]) and more than 30 µM in experiment [2].
Taken in the same sequence, the figures for `O=c1c(Cc2cccnc2)cn2c3cc(C(F)(F)F)ccc3c3cc(OCCCO)cc1c32` [Example 55, 2-(3-hydroxypropyloxy)-5-(3-pyridylmethyl)-9-trifluoromethyl-4H-pyrido[3,2,1-jk]carbazol-4-one] were 0.017 µM and more than 30 µM.
